# Out of some 110,000 compounds screened, about 230 (0.21%) showed an effect of 50% or more. The list shows a part of the results.
# Target: DPAP1 (Plasmodium falciparum, UniProt Q8IIJ9)
# Test: primary screen, percent inhibition; read by cleavage of a fluorogenic dipeptide substrate; higher = more effect of the substance
# Design: species or system P. falciparum D10 trophozoite lysates; single well
# 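Further: 30 min substrate incubation versus DMSO and 10 µM JCP410 controls.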
# Chain of DPAP1 (Q8IIJ9 whole entry, looked up): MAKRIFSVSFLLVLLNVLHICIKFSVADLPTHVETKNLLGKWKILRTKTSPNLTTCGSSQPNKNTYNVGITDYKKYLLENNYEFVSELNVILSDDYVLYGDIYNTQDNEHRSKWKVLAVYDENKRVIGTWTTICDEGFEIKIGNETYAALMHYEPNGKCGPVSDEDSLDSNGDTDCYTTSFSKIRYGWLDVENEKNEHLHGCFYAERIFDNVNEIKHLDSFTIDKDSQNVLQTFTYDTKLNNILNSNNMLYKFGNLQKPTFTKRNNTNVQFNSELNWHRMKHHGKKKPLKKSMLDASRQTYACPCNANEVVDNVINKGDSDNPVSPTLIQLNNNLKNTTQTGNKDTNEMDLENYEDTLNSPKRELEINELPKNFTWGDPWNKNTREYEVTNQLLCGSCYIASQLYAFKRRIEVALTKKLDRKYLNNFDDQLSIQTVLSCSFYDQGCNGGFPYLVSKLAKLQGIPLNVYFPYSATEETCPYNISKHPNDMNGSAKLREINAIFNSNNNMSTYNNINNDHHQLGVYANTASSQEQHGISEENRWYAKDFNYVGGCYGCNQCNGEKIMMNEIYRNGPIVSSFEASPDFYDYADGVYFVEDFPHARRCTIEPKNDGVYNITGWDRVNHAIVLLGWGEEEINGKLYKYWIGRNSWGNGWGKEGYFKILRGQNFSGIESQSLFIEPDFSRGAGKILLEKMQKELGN
row,Compound,% Inhibition @ 10 uM [%]
1,O=C(CN1CCN(CCN2C(=O)c3cccc4cccc(c34)C2=O)CC1)c1ccc(Cl)cc1,16.8
2,COc1cc(CN2CCN(Cc3cccc(Br)c3)CC2)cc2c1OCO2,-10.1
3,Cc1c(C)n(C)c2c(C)c3nc(O)cc(C(F)(F)F)c3cc12,5.13
4,Cc1cc2nc(COc3cccc(C)c3C)cc(=O)n2o1,-0.495
5,O=C(CC(c1ccccc1)c1ccccc1)NCC1OCCc2ccccc21 (centres unmarked),0.685
6,COc1ccc(NC(=O)CSc2nc3ccccc3o2)cc1OC,-2.8
7,COC(=O)C1=C(C)N(Cc2ccc(C)cc2)C(=O)C1,4.55
8,O=C(c1cccc(Cl)c1)N1CCC(c2nc(O)c3nnn(Cc4ccsc4)c3n2)CC1,-1.15
9,CCOCCNc1ncnc2onc(-c3ccc(Cl)cc3)c12,4.28
10,CCN(CC)S(=O)(=O)c1ccc2ncc(C(=O)NC(C)CCc3ccccc3)c(O)c2c1 (centres unmarked),2.79
11,C=CCNC(=O)C1CCN(S(=O)(=O)c2ccccc2)CC1,-5.62
12,COc1ccc(CN2CCCCCC2)cc1O,1.4
13,Cc1cc(CNC(=O)Cc2cccs2)c2ccccc2n1,6.17
14,O=C(NCCc1nc2ccccc2n1CCCOc1ccccc1Cl)c1ccco1,0.486
15,O=C(O)C1CCCCC1C(=O)NCc1ccncc1 (centres unmarked),-0.68
16,COc1ccc(NC(=O)c2sc3nc(-c4cccs4)ccc3c2N)c(OC)c1,5.89
17,COc1cccc(C(=O)c2cn(CC(=O)NC3CCCCC3)c3nc(C)ccc3c2=O)c1,2.86
18,CC1CCc2c(C(=O)NCCN3CCOCC3)csc2C1 (centres unmarked),1.93
19,CN1CCCN(Cc2ccc(Cl)cc2)CC1,2.33
20,Cc1ccccc1OCC(=O)Nc1cnn(CCCC(=O)O)c1,11.2
21,COc1ccc(OC)c(C2CC(=O)C3=C(C2)NC(=O)CC3c2ccc3c(c2)OCO3)c1 (centres unmarked),-0.472
22,CNC(=S)NCCc1ccc(OC)c(OC)c1,-6.88
23,CCOc1nc(-c2ccccc2)ccc1-c1noc(-c2ccco2)n1,2.1
24,Cc1[nH]c2ccccc2c1C1N2CC3(C)CN1CC(c1ccccc1)(C2)C3=O (centres unmarked),-3.24
25,CC12C=CC(C)(O1)C1C(=O)N(c3cc(C(F)(F)F)ccc3Cl)C(=O)C12 (centres unmarked),4.65
26,CCCCNc1nc(SCC(=O)NCCC(C)C)nc2ccccc12,-0.112
27,Cc1ccc(-c2nc3cc(Cl)ccc3o2)cc1NC(=O)c1cccnc1,-3.92
28,CCC(C)c1ccc(NC(=O)c2ccc(Cl)cc2)cc1 (centres unmarked),5.09
29,Cc1cc(C)cc(N2C(=O)CSC23C(=O)N(CN2CCOCC2)c2ccccc23)c1 (centres unmarked),-0.478
